Reference: PubChem BioAssay AID588855 (National Center for Advancing Translational Sciences (NCATS), 2011)
The campaign covered roughly 410,000 compounds. About 5,000 (1.2%) were called active. The shares of active, inactive and inconclusive entries below differ from those in the screen. The call rests on the fitted dose curve; in most records, active means well fitted inhibition curve with a large enough effect; inconclusive means small, poorly fitted or top-dose-only effect; inactive means no such curve, though single readings can be large or run the other way. Potencies of inconclusive entries are doubtful fits and often do not repeat.

Test: qHTS for Inhibitors of TGF-b; further: nearly all actives have a fitted effect of over 65% in size
Details: HepG2 CAGA-GFP TGF-b/SMAD3 reporter, GFP fluorescence, 18 h, TGF-beta stimulated, 500 pg/mL final; series mostly up to 46.1 µM; activity, negative = inhibition: at the top concentration
How it was run: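 Cell-based qHTS in HEPG2 carrying a CAGA-GFP Smad reporter; compounds added before 500 pg/mL final TGF-beta, 18 h incubation at 37 degrees C, GFP fluorescence quantified per cell by imaging cytometry.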
On the % scale 0 is the no-effect control and ±100 the full control effect; potency means the concentration at half of the fitted maximal effect; tags describe the fitted curve by direction and shape.

Row | SMILES | Potency | activity, negative = inhibition
1 | CCOc1ccc(NC(=O)CSc2c3c(nc4ccccc24)CCCC3)cc1 | inconclusive: 35.5 µM [inhibitor, single point] | –
2 | O=C(O)CCc1nn2c3ccccc3n(Cc3ccccc3F)c2nc1=O | – | inactive: 0.898%
3 | Cc1noc(-c2ccccc2OCC(=O)Nc2ccccc2[N+](=O)[O-])n1 | inconclusive: 35.5 µM [inhibitor, single point] | –
4 | CC1Cc2ccccc2N1C(=S)Nc1cccc(S(=O)(=O)N(C)C)c1 (stereo unspecified) | inconclusive: 25.1 µM [inhibitor, single point] | –
5 | CC(C)OCCCN1C(=O)c2[nH]nc(-c3ccccc3O)c2C1c1ccccc1F (stereo unspecified) | active: 10 µM | –
6 | CC(NS(=O)(=O)c1ccccc1Cl)C1CC2CCC1C2 (stereo unspecified) | inconclusive: 35.5 µM [inhibitor, partial curve, poor fit] | –
7 | COc1cccc(-c2csc(N3CCN(CC(=O)NNC(=O)c4ccc(Br)cc4)CC3)n2)c1 | – | inactive: -22%
8 | O=C(NCC1CCN(Cc2cccc(Cl)c2)CC1)Nc1ccc(F)c(Cl)c1 | active: 22.4 µM | –
9 | COc1ccc2nc(NC(=O)CN(c3ccc(C)cc3)S(=O)(=O)c3c(C)nn(C)c3C)sc2c1 | inconclusive: 10 µM [inhibitor, partial curve, poor fit] | –
10 | Cc1cc(C(=O)CCl)c(C)n1-c1c(C)n(C)n(-c2ccccc2)c1=O | inconclusive: 14.1 µM [inhibitor, single point] | –
11 | COc1ccccc1C1NC(c2ccc3c(c2)OCO3)=CC(c2cc(Cl)ccc2O)N1 (stereo unspecified) | inconclusive: 14.1 µM [inhibitor, single point] | –
12 | CC(C)c1nc2ccc(C(=O)NCc3ccccc3Br)cc2o1 | inconclusive: 6.31 µM [inhibitor, single point] | –
13 | NS(=O)(=O)c1cccc(C(=O)N2CCCc3ccccc32)c1 | – | inactive: 2.23%
14 | COc1cccc(C(C)(O)c2nc(-c3ccc(F)c(Cl)c3)cs2)c1 (stereo unspecified) | inconclusive: 35.5 µM [inhibitor, single point] | –
15 | Cc1nc([N+](=O)[O-])c(Br)n1Cc1ccccc1 | inconclusive: 20 µM [inhibitor, single point] | –
16 | O=C(CN1CCN(C/C=C/c2ccccc2)CC1)Nc1cc([N+](=O)[O-])ccc1Cl | inconclusive: 22.4 µM [inhibitor, single point] | –
17 | COc1cccc(C(C)(O)c2nc(-c3cc(F)cc(F)c3)cs2)c1 (stereo unspecified) | inconclusive: 14.1 µM [inhibitor, single point] | –
18 | Cc1cc(N/N=C/c2ccccc2Br)nc2ccccc12 | inconclusive: 22.4 µM [inhibitor, single point] | –
19 | CCN(CC)C(=O)c1oc2ccc(S(=O)(=O)N3CCCCCC3)cc2c1C | inconclusive: 0.316 µM [inhibitor, full curve, poor fit] | –
20 | Cc1ccc(C(=O)CSc2nnc(COc3cccc4cccnc34)o2)cc1 | inconclusive: 0.112 µM [inhibitor, full curve, poor fit] | –
21 | C/C(=N\NC(=O)c1ccco1)c1ccc(-c2ccccc2)cc1 | inconclusive: 28.2 µM [inhibitor, single point] | –
22 | CNC(=S)N=Nc1c(O)[nH]c2ccc(C(C)C)cc12 | – | inactive: -19.3%

Row | SMILES | Potency | activity, negative = inhibition
23 | O=C(Nc1nc2ccc(F)cc2s1)c1ccccn1 | inconclusive: 11.2 µM [inhibitor, partial curve] | –
24 | O=C(c1cc2sccc2n1Cc1ccc(F)cc1)N1CCCc2ccccc21 | – | inactive: -2.61%
25 | O=C(Nc1ccnn1C1CCN(C2CCCCC2)CC1)c1ccccc1 | – | inactive: -8.74%
26 | CCCN1C(=O)c2[nH]nc(-c3cc(Cl)c(C)cc3O)c2C1c1ccc(O)c(OC)c1 (stereo unspecified) | inconclusive: 15.8 µM [inhibitor, single point] | –
27 | CCN(c1ccccc1)S(=O)(=O)c1ccc(N2CCN(c3ccccc3O)CC2)nc1 | inconclusive: 35.5 µM [inhibitor, single point] | –
28 | NC(=O)C1CCN(c2ncc(C(F)(F)F)cc2Cl)CC1 | inconclusive: 4.47 µM [inhibitor, single point] | –
29 | COc1ccc(C(=O)NC(c2ccccc2Cl)c2cc(Cl)c3cccnc3c2O)cc1 (stereo unspecified) | active: 10 µM | –
30 | CCN(CC(=O)NCc1cccs1)C(=O)c1cccc(S(=O)(=O)N(CC)c2ccccc2)c1 | inconclusive: 35.5 µM [inhibitor, single point] | –
31 | CC[C@]12c3[nH]c4cc(-c5ccco5)ccc4c3CCN1C(=O)[C@@H](CC(=O)NCc1ccco1)C[C@@H]2C(=O)N1CCN(C(=O)c2ccco2)CC1 | inconclusive: 31.6 µM [inhibitor, single point] | –
32 | O=c1c2ccccc2c(C=Nc2ccccc2O)c(O)n1-c1nccs1 | – | inactive: 68.1%
33 | O=C(c1cc(COc2ccc(F)cc2Cl)on1)N1CCN(C2CCCC2)CC1 | inconclusive: 14.1 µM [inhibitor, single point] | –
34 | NC(CSC(c1ccccc1)(c1ccccc1)c1ccccc1)C(=O)O (stereo unspecified) | inconclusive: 11.2 µM [inhibitor, single point] | –
35 | CCC1(c2ccccc2)NC(=O)N(CC(=O)Nc2cc(Cl)ccc2N2CCN(C)CC2)C1=O (stereo unspecified) | inconclusive: 6.31 µM [inhibitor, partial curve, poor fit] | –
36 | O=C1CCCCc2cc(O)c(O)cc21 | inconclusive: 15.8 µM [inhibitor, partial curve, poor fit] | –
37 | O=C(CC1C(=O)CCCC1=O)c1ccccc1 | inconclusive: 25.1 µM [inhibitor, single point] | –
38 | COc1ccccc1N1CCN(C(=O)c2cccc(Oc3ccccc3)c2)CC1 | inconclusive: 17.8 µM [inhibitor, single point] | –
39 | Cc1ccc(S(=O)(=O)Nc2cc(Cl)c3oc4c(c3c2)CCCC4)cc1 | inconclusive: 10 µM [inhibitor, partial curve, poor fit] | –
40 | CC(=O)c1cccc(CN2CCC(CO)(CCCc3ccccc3)CC2)c1 | – | inactive: 30.1%
41 | Oc1ccc(-c2csc(Nc3ccccn3)n2)c(O)c1 | inconclusive: 15.8 µM [inhibitor, single point] | –
42 | COc1ccc(C(=O)C2CCCN(Cc3ccc4nonc4c3)C2)c(OC)c1 (stereo unspecified) | inconclusive: 10 µM [inhibitor, partial curve, poor fit] | –
43 | CCOC(=O)c1ccc(NC(=O)C2CCCN(S(=O)(=O)c3ccc(F)cc3)C2)cc1 (stereo unspecified) | – | inactive: -9.73%
44 | CCOc1ccccc1C(=O)Nc1cccc2cccnc12 | – | inactive: -11%

Row | SMILES | Potency | activity, negative = inhibition
45 | CCOc1ccc(NC(=O)CSc2oc(-c3ccco3)nc2S(=O)(=O)c2ccccc2)cc1 | – | inactive: -22.5%
46 | CCCc1cc(=O)oc2cc(OCC(=O)NCCc3c[nH]c4ccccc34)ccc12 | inconclusive: 20 µM [inhibitor, partial curve, poor fit] | –
47 | Cc1ccc(NC(=O)c2oc3ccc(S(=O)(=O)N(C)C4CCCCC4)cc3c2C)c(C)c1 | inconclusive: 1.41 µM [inhibitor, partial curve, poor fit] | –
48 | COc1ccc(C(=O)/C=C/c2cccs2)c(OC(=O)c2cccc([N+](=O)[O-])c2)c1 | – | inactive: 17.2%
49 | COc1ccc(NCC(=O)Nc2cccc(C(F)(F)F)c2)cc1S(=O)(=O)N1CCOCC1 | inconclusive: 35.5 µM [inhibitor, single point] | –
50 | COc1ccc(-c2cn3cc(C)ccc3n2)cc1F | inconclusive: 7.94 µM [inhibitor, partial curve] | –
51 | COC(=O)c1ccccc1NC(=O)CNc1cc(OC)c(OC)cc1C | inconclusive: 22.4 µM [inhibitor, single point] | –
52 | Nc1ccc(C(=O)OCC(=O)N2c3ccccc3Sc3ccccc32)cc1[N+](=O)[O-] | inconclusive: 12.6 µM [inhibitor, single point] | –
53 | c1ccc(CCN2CCN(c3ncnc4c3cnn4-c3ccccc3)CC2)cc1 | inconclusive: 35.5 µM [inhibitor, single point] | –
54 | COc1ccc(-c2ccc3oc(-c4ccc(OC)cc4)c(-c4ccc(OC)cc4)c3c2)cc1 | – | inactive: 4.47%
55 | Nc1cccc(-c2c[nH]c3ncc(-c4cccnc4)cc23)c1 | inconclusive: 35.5 µM [inhibitor, single point] | –
56 | NC(=O)N=Nc1c(O)[nH]c2ccc([N+](=O)[O-])cc12 | – | inactive: -6.81%
57 | COc1cc(C(CC(=O)N2CCOCC2)c2c(OC)cc(OC)c3c(-c4ccccc4)cc(=O)oc23)cc(OC)c1OC (stereo unspecified) | inconclusive: 1.26 µM [inhibitor, full curve] | –
58 | Nc1ccc2sc(N)nc2c1 | inconclusive: 35.5 µM [inhibitor, single point] | –
59 | Cc1ccc(CN2C(=O)c3ccccc3Sc3ccc(C(=O)N4CCOCC4)cc32)cc1 | inconclusive: 35.5 µM [inhibitor, single point] | –
60 | Cc1c(C(=O)N2CCCC2)oc2c1-c1nn(CC(=O)NCCCN3CCCCC3)cc1CC2 | – | inactive: 0.627%
61 | CCc1ccc(N/C(=N/c2nc(C)cc(C)n2)NC(C)=O)cc1 | inconclusive: 20 µM [inhibitor, single point] | –
62 | COc1c(C=O)c2c(c(OC)c1OC)-c1ccc(OC)c(=O)cc1C(NC(C)=O)CC2 (stereo unspecified) | inconclusive: 0.316 µM [inhibitor, full curve, poor fit] | –
63 | CCCCN(CCCC)S(=O)(=O)c1ccc(NC(=O)Cc2cccs2)cc1 | inconclusive: 35.5 µM [inhibitor, single point] | –
64 | Cc1cccc(NC(=O)Cn2c(=O)n(Cc3ccco3)c(=N)c3c4c(sc32)COC(C)(C)C4)c1 | – | inactive: -17.8%
65 | CN(C)/C=C/C(=O)/C=C/c1cn(-c2ncc(C(F)(F)F)cc2Cl)c2ccccc12 | inconclusive: 35.5 µM [inhibitor, single point] | –
66 | Cc1cccc(N(CC(=O)N/N=C/c2ccc(OCC(=O)NCc3ccco3)cc2)S(C)(=O)=O)c1C | inconclusive: 1.12 µM [inhibitor, full curve, poor fit] | –
